Relative growth data for 39 compounds are collected here from the supplement of paper PMC9446081.

Out of some 39,000 compounds screened, about 220 (0.56%) showed activity. The list shows a part of the results.
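Note: static incubation at 37 °C against the wild-type strain, values averaged over two biological replicates.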

In the assay the test system is Escherichia coli K-12 BW25113. Kind of assay: relative growth (OD600 normalised to plate interquartile mean) (fraction); higher = less growth inhibition, active = 0.2 or less. The note with it: 50 µM; LB; incubation time: overnight (16-24 h).
On to `CC(C)NC(=O)Nc1ccc2c(c1)CC(=O)N([C@@H](C)CO)C[C@H](C)[C@@H](CN(C)S(=O)(=O)c1cccs1)O2`, for which the relative growth was inactive: 0.981.

On to `Cc1noc(C)c1NC(=O)Nc1ccc2c(c1)C(=O)N([C@@H](C)CO)C[C@@H](C)[C@@H](CN(C)Cc1ccc(C(=O)O)cc1)OCCCC[C@H](C)O2`, for which the relative growth was inactive: 1.

In the case of `COc1ccc(C(C)(C)N)cc1OC`, the relative growth was inactive: 1.02.

As to `C[C@H]1CN([C@@H](C)CO)C(=O)Cc2cc(NC(=O)Cn3cnnn3)ccc2O[C@H]1CN(C)C(=O)Nc1ccc(C(F)(F)F)cc1`, the relative growth was inactive: 0.975.

Take `C[C@@H]1CN([C@H](C)CO)C(=O)c2cccc(NC(=O)C3CCOCC3)c2O[C@H]1CN(C)S(=O)(=O)c1ccc(F)cc1`: the relative growth is inactive: 0.983.

`C[C@@H]1CN([C@@H](C)CO)C(=O)Cc2cc(NC(=O)Nc3cccc4ccccc34)ccc2O[C@@H]1CN(C)C(=O)Nc1cccc2ccccc12`: the relative growth was inactive: 0.982.

As to `C[C@@H]1CCCCO[C@@H](CN(C)C(=O)c2ccccc2)[C@@H](C)CN([C@@H](C)CO)C(=O)c2cc(NC(=O)C3CCCCC3)ccc2O1`, the relative growth is inactive: 0.977.

Regarding `O=C(C[C@@H]1C=C[C@@H](NC(=O)c2ccc(F)cc2)[C@@H](CO)O1)NCc1ccncn1`, the relative growth is inactive: 1.01.

Regarding `COc1ccccc1S(=O)(=O)N1C[C@H](O)COC[C@H]2O[C@@H](CC(=O)O)CC[C@@H]21`, the relative growth is inactive: 0.954.

Consider `C[C@H](CO)N1C[C@H](C)[C@H](CN(C)Cc2ccc(C(F)(F)F)cc2)Oc2c(NC(=O)c3ccc(-c4nccs4)cc3)cccc2C1=O`, for which the relative growth was inactive: 1.02.

Turning to `Cc1ccc(S(=O)(=O)Nc2ccc3c(c2)C(=O)N([C@H](C)CO)C[C@@H](C)[C@@H](CN(C)C(=O)Nc2c(C)noc2C)OCCCC[C@@H](C)O3)cc1`, the relative growth is inactive: 0.994.

As to `Cc1noc(C)c1S(=O)(=O)N(C)C[C@H]1Oc2ccc(NC(=O)CCC(F)(F)F)cc2CC(=O)N([C@H](C)CO)C[C@H]1C`, the relative growth was inactive: 1.02.

On to `COc1ccccc1-c1ccc2c(c1)O[C@H](CN(C)S(=O)(=O)c1ccccc1)[C@@H](C)CN([C@@H](C)CO)S2(=O)=O`, for which the relative growth was inactive: 1.06.

For the compound `C[C@@H]1CN([C@@H](C)CO)C(=O)Cc2cc(NC(=O)CCN3CCOCC3)ccc2O[C@H]1CN(C)Cc1ccccc1`, the relative growth is inactive: 1.02.

Regarding `C[C@@H]1CCCCO[C@@H](CN(C)Cc2ccc(Cl)c(Cl)c2)[C@H](C)CN([C@H](C)CO)C(=O)c2cc(NC(=O)NC3CCCCC3)ccc2O1`, the relative growth was inactive: 1.04.

Regarding `NC1CONC1=O` (centres undefined), the relative growth was inactive: 1.03.

As to `C[C@@H]1CN([C@@H](C)CO)C(=O)c2cccc(NS(=O)(=O)c3cn(C)cn3)c2O[C@@H]1CN(C)Cc1ccc2c(c1)OCO2`, the relative growth is inactive: 0.962.

In the case of `C[C@H](CO)N1C[C@H](C)[C@H](CN(C)S(=O)(=O)c2cn(C)cn2)Oc2ccc(NC(=O)c3ccncc3)cc2CC1=O`, the relative growth was inactive: 0.976.

With `C[C@H]1CN([C@@H](C)CO)C(=O)c2cccc(NC(=O)c3ccc(-c4nccs4)cc3)c2O[C@@H]1CN(C)Cc1ccc(C(=O)Nc2ccccc2N)cc1`, the relative growth is inactive: 1.08.

Turning to `COC(=O)Cn1c(Cl)nc2c1c(=O)n(C)c(=O)n2C`, the relative growth was inactive: 0.999.

Consider `COc1cccc(S(=O)(=O)Nc2ccc3c(c2)[C@H]2C[C@@H](CC(=O)N4CCCCC4)O[C@@H](CO)[C@H]2O3)c1`, for which the relative growth was inactive: 1.01.

Consider `C[C@@H]1CN([C@H](C)CO)C(=O)c2cc(NS(=O)(=O)c3cccs3)ccc2O[C@@H]1CN(C)Cc1ccncc1`, for which the relative growth was inactive: 0.985.

On to `C[C@@H]1CN([C@@H](C)CO)C(=O)Cc2cc(NC(=O)Cc3ccccc3)ccc2O[C@H]1CN(C)S(C)(=O)=O`, for which the relative growth was inactive: 0.973.

Consider `O=C(NCc1ccccc1)[C@@]1(CCS(=O)(=O)c2ccccc2)COC(c2ccc(OCCCO)cc2)=N1`, for which the relative growth is inactive: 0.989.

Consider `O=C(Cn1cc(COc2ccc3ccccc3c2)nn1)NS(=O)(=O)c1ccccc1OC(F)(F)F`, for which the relative growth is inactive: 0.991.

With `O=C(C[C@H]1C[C@H]2c3cc(NC(=O)Cc4ccncc4)ccc3O[C@H]2[C@H](CO)O1)NCc1cc(F)ccc1F`, the relative growth was inactive: 1.01.

Regarding `Cc1noc(C)c1NC(=O)Nc1ccc2c(c1)C(=O)N([C@@H](C)CO)C[C@@H](C)[C@@H](CN(C)Cc1ccc(Cl)c(Cl)c1)O2`, the relative growth was inactive: 0.959.

For `C[C@H](CO)N1C[C@H](C)[C@@H](CN(C)Cc2ccc(C(=O)Nc3ccccc3N)cc2)OCc2cnnn2CCCC1=O`, the relative growth was inactive: 1.01.

Consider `CC(=O)N1CCC[C@@H]1C(=O)O`, for which the relative growth is inactive: 0.971.

For the compound `Cc1noc(C)c1NC(=O)Nc1ccc2c(c1)C(=O)N([C@H](C)CO)C[C@H](C)[C@@H](CN(C)Cc1ccc(Cl)c(Cl)c1)OCCCC[C@@H](C)O2`, the relative growth was inactive: 1.02.

Regarding `CCc1nc2ccc(C(=O)Nc3cccc(OC)c3)cn2c1N(CC)Cc1cccc(Br)c1`, the relative growth was inactive: 1.01.

Regarding `C[C@@H]1CN([C@H](C)CO)C(=O)c2cccc(NC(=O)NC3CCCCC3)c2O[C@@H]1CN(C)Cc1ccc(C(=O)Nc2ccccc2N)cc1`, the relative growth is inactive: 1.03.

Consider `C[C@H]1CN([C@@H](C)CO)C(=O)c2cc(NC(=O)Nc3ccc(C(F)(F)F)cc3)ccc2O[C@@H]1CN(C)Cc1ccc(Cl)c(Cl)c1`, for which the relative growth was inactive: 0.991.

In the case of `C[C@@H]1CCCCO[C@@H](CN(C)C(=O)Nc2ccc(F)cc2)[C@H](C)CN([C@@H](C)CO)C(=O)c2cc(NC(=O)CCCN(C)C)ccc2O1`, the relative growth is inactive: 0.968.

Turning to `C[C@@H]1CN([C@@H](C)CO)C(=O)Cc2cc(NS(=O)(=O)c3cccs3)ccc2O[C@@H]1CN(C)S(=O)(=O)c1cccs1`, the relative growth is inactive: 0.982.

Take `Cc1ccc(S[C@]2(C(=O)NCCN3CCOCC3)CC(=O)N(C(C)C)[C@@H]2c2ccc(CO)cc2)cc1`: the relative growth is inactive: 1.

As to `Cc1noc(C)c1S(=O)(=O)Nc1ccc2c(c1)CC(=O)N([C@@H](C)CO)C[C@H](C)[C@@H](CN(C)C(=O)NC1CCCCC1)O2`, the relative growth was inactive: 0.942.

For the compound `CCn1cnc(C(=O)NC)c1C(=O)NC`, the relative growth is inactive: 1.01.

Consider `C[C@H]1CCCCO[C@@H](CN(C)C(=O)Nc2ccc3c(c2)OCO3)[C@@H](C)CN([C@@H](C)CO)C(=O)c2cc(NS(=O)(=O)c3ccc(F)cc3)ccc2O1`, for which the relative growth was inactive: 1.05.
